Data reported in PubChem BioAssay AID1346428 (National Center for Advancing Translational Sciences (NCATS), 2018).
“And” between values parts separate entries of the source, which are not always exact repeats. Identical values can stand only once. Hit rate of the full screen: of about 48,000 compounds, about 1,200 (2.5%) were called active. Not shown: some 2% with an inconclusive outcome.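 How the source made its calls: active means activation of at least 60% and not above a set upper limit (about 1 call in 100 departs from these limits); inconclusive means activation of 40% to 60%, or above that upper limit; inactive means activation under 40%.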 Some of the results follow.

target: Probable G-protein coupled receptor 32 (Homo sapiens) (UniProt O75388); assay: qHTS for Agonists of Human Resolvin D1 Receptor DRV1; settings: CHO-K1 GPR32 beta-arrestin PathHunter luminescence, 90 min; at 76.9 µM; stronger effect = higher value; zero percent set by DMSO-only wells; further: 0% is about no effect
UniProt O75388, sequence (O75388 whole entry, looked up): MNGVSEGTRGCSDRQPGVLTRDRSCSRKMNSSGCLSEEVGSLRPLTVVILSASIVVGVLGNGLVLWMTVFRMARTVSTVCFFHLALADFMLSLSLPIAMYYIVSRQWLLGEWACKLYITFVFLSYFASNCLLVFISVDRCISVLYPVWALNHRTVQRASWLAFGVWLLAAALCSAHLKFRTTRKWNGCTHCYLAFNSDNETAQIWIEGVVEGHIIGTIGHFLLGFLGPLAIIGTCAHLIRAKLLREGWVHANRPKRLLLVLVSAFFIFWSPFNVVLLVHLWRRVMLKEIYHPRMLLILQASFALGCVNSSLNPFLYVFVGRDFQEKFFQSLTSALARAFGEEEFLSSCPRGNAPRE
In short: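 Cells are plated overnight, treated with compounds in DMSO for 90 minutes at 37 °C, and developed with PathHunter detection reagent for 1 hour before luminescence is read; signal reflects beta-arrestin binding to GPR32 in engineered CHO-K1 cells.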

Structure (SMILES)	activation
CN1C[C@H]2c3ccccc3Oc3ccc(Cl)cc3[C@@H]2C1	active: 91.8%
Cc1ccc(-n2ncc3c(Nc4cccc(Cl)c4)ncnc32)c(C)c1	inactive: -7.83%
CCN(CC)c1cc(C)c2cc(NC(=O)/C=C/c3cc(OC)c(OC)c(OC)c3)ccc2n1	inactive: -17.9%
CC(C)c1nnc(N2C(=O)c3oc4ccccc4c(=O)c3C2c2ccccc2F)s1 (configuration not stated)	inactive: -2.13%
c1ccc([C@H]2CN3CCSC3=N2)cc1	inactive: -11.7% and inactive: -8.8%
CCc1ccc(CNC(=O)CCc2c(C)nn(-c3ccc(N4CCCC4)nn3)c2C)cc1	inactive: -12.9%
COc1cc(NC(=O)C2=CC(c3ccc(F)cc3)=NS(=O)(=O)N2C)cc(OC)c1OC	inactive: -8.04%
CCN(Cc1ccccc1)C(=O)C1CCN(S(=O)(=O)c2ccc3c(c2)CCCN3C(C)=O)CC1	inactive: 0.856%
O=C(CSc1nccn1Cc1ccc(F)cc1)Nc1nc2ccccc2s1	inactive: 10.4%
Cc1cc2c(cc1S(=O)(=O)Nc1cccc(C#N)c1)OCC(=O)N2	inactive: -2.91%
O=C(Cn1ncc2c3ccccc3n(Cc3ccccc3F)c2c1=O)NCc1ccccc1Cl	inactive: -11.6%
Cc1cccc(CC(=O)N2CC(=O)Nc3ccc(Br)cc3C2c2ccc(F)cc2)c1 (configuration not stated)	inactive: -24%
Cc1coc2c(C)c3oc(=O)c(CCC(=O)NCCc4ccccc4F)c(C)c3cc12	inactive: -8.26%
CC(C)N(C(=O)CSc1cn(CC(=O)N2CCCCCC2)c2ccccc12)C(C)C	inactive: -9.42%
CCOC(=O)c1ccc(NC(=O)Cn2c(=O)cc(C)c3c(C)nn(-c4ccc(CC)cc4)c32)cc1	inactive: -6.26%
COc1ccc(CNC(=O)CN(C)S(=O)(=O)c2ccc3nc(C)sc3c2)cc1	inactive: -11.9%
COc1cccc(C(=O)Nc2ccccc2C(=O)OCc2cc(=O)n3c4c(sc3n2)CCCC4)c1	inactive: -33.9%
N#Cc1ccc(-c2cccs2)nc1SCc1ccc(Br)cc1	inactive: -4.3%
COc1ccc(-n2nc(C(=O)N3CCCCC3C)c3c4ccccc4n(C)c3c2=O)cc1Cl (configuration not stated)	inactive: -5.47%
CCOc1ccc(CCNC(=O)c2cn(-c3ccc(OC)cc3)c(=O)c3ccccc23)cc1OCC	inactive: -13%
COc1cccc(/C=C/c2nc(C#N)c(N3CCC(C(N)=O)CC3)o2)c1	inactive: 13.8%
COc1ccccc1Nc1sc(C(=O)c2ccc(F)cc2)c(N)c1S(=O)(=O)c1ccc(C)cc1	inactive: -2.14%
CN(Cc1ccccc1)C(=O)c1ccc(CSc2nc3cccnc3n2Cc2ccccc2F)cc1	inactive: 0.0023%
COc1ccc(NC(=O)Cn2c(=O)n(CCC(=O)NCC3CCCO3)c(=O)c3cc(OC)c(OC)cc32)cc1 (configuration not stated)	inactive: -0.562%
Cc1cccc(NC(=O)Cn2c(=O)n(CCCCCC(=O)NCc3ccccc3)c(=O)c3sccc32)c1	inactive: -1.95%
CCOc1ccc(CNC(=O)C2CCN(C(=O)c3ccc(-n4ccc5ccccc54)s3)CC2)cc1	inactive: 10.9%

Structure (SMILES)	activation
COc1ccc(-c2cc3ncc(C)n3c(Nc3ncccc3C(N)=O)n2)cc1OC	inactive: -10.8%
CCOC(=O)N1CCN(C(=O)c2ccc3c(c2)N(Cc2ccccc2F)C(=O)c2ccccc2S3(=O)=O)CC1	inactive: -8.25%
O=C(COc1ccccc1)NCC(c1ccc(Cl)cc1)N1CCCCC1 (configuration not stated)	inactive: -21.4%
O=C(CCCc1ccccc1)NC1CC(=O)N(c2cccc(F)c2)C1 (configuration not stated)	inactive: -11.8%
CCc1ccc(NC(=O)CSc2nc3c(c(=O)[nH]2)CN(Cc2ccc4c(c2)OCO4)CC3)cc1	inactive: 20.8%
CCOC(=O)c1cc2c(=O)n3ccccc3nc2n(C)c1=NC(=O)c1c(-c2c(F)cccc2Cl)noc1C	inactive: -6.58%
O=C(Nc1ccc(Br)c(Cl)c1)c1ccc(C(=O)Nc2ccc(Br)c(Cl)c2)cc1	inactive: -4.13%
CCCCCn1c(CCCNC(=O)c2ccc(Cl)cc2)nc2ccccc21	inactive: 1.52%
COc1ccccc1CNC(=O)C(=O)NCC(c1ccco1)S(=O)(=O)c1ccc(C)cc1 (configuration not stated)	inactive: -13.8%
NC(N)=NN=C(/C=C/c1ccc([N+](=O)[O-])o1)/C=C/c1ccc([N+](=O)[O-])o1	inactive: -26.4%
COC(=O)C1=C(C)N(C(C)C)C(=O)C1(NC(=O)c1ccccc1OC)C(F)(F)F (configuration not stated)	inactive: -10.7%
O=C1NC(=O)/C(=C/c2ccc3nccnc3c2)S1	inactive: -1.82%
COc1ccc(-c2nc(C(=O)Nc3cccc(C(C)=O)c3)nn2-c2ccccc2Cl)cc1	inactive: -3.85%
COc1ccc(CNC(=O)CCc2nnc3n(C)c(=O)c4sccc4n23)cc1	inactive: -3.51%
COCCCNC(=O)c1cc2c(-c3cccc(OC)c3)nn(C)c2s1	inactive: -4.5%
O=C(CSc1nccn1Cc1ccc(Cl)cc1)Nc1nc2ccccc2s1	inactive: 0.0791%
CCC(=O)N1CCc2cc(Br)cc(S(=O)(=O)Nc3ccccc3C(=O)OC)c21	inactive: -10.5%
COc1ccc(N2CCN(C(=O)c3cc4c(=O)n(Cc5ccco5)ccc4nc3C)CC2)cc1	inactive: -15.2%
O=C(NCc1ccccc1Cl)c1ccccc1NC(=O)c1nsc2ccccc12	inactive: -2.55%
COc1cc(OC)c(NC(=O)c2cnn(-c3ccccc3)c2-n2cccc2)cc1Cl	inactive: -8.21%
CCOc1cc(-c2nc(-c3ccc(-c4ccccc4)nc3OCC)no2)cc(OCC)c1OCC	inactive: -12.9%
CCc1ccc(NC(=O)c2cc(S(=O)(=O)N3CCCC(C)C3)cn2C)cc1 (configuration not stated)	inactive: 22.2%
Cc1ccccc1CCNC(=O)c1ccc(Cn2c(=O)c3cccn3c3cccnc32)cc1	inactive: -13.1%
CCOC(=O)[C@H](CCc1ccccc1)N[C@H]1CS[C@H](c2cccs2)CN(CC(=O)O)C1=O	inactive: -9.07%
CCC(=O)N1CCc2cc(CNC(=O)c3cccc(N(C)C)c3)ccc21	inactive: -32.4%
COc1ccc(NC(=O)C2CCCN(c3ncnc4onc(C)c34)C2)cc1OC (configuration not stated)	inactive: 17.8%
